Data reported in PubChem BioAssay AID1460 (National Center for Advancing Translational Sciences (NCATS), 2008).
In all, about 270,000 compounds went through this assay and about 5,800 (2.1%) were called active. This list was built around the results that the source calls inconclusive (neither active nor inactive); the mix of calls is not that of the screen. The call rests on the fitted dose curve; in most records, active means well fitted inhibition curve with a large enough effect; inconclusive means small, poorly fitted or top-dose-only effect; inactive means flat fitted curve, though single readings scatter. Where the call is inconclusive, the potency comes from a doubtful curve fit.

What follows are compounds tested against Microtubule-associated protein tau (Homo sapiens) (UniProt P10636) (assay: qHTS for Inhibitors of Tau Fibril Formation, Thioflavin T Binding). Conditions: recombinant tau K18 P301L, heparin-induced fibrillization, ThT fluorescence; series mostly up to 57.4 µM; activity, negative = inhibition: at the top concentration.
How it was run: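 Using a mix of unlabeled (15 uM) and Alexa 594-labeled (0.24 uM) tau K18 P301L, heparin-triggered fibrillization over 6 hr at 37 C was scored by ThT fluorescence.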
Further: nearly all actives have a fitted effect of over 55% in size.
On the % scale 0 is the no-effect control and ±100 the full control effect; potency means the concentration at half of the fitted maximal effect; tags describe the fitted curve by direction and shape.

UniProt P10636, sequence (P10636 whole entry, looked up): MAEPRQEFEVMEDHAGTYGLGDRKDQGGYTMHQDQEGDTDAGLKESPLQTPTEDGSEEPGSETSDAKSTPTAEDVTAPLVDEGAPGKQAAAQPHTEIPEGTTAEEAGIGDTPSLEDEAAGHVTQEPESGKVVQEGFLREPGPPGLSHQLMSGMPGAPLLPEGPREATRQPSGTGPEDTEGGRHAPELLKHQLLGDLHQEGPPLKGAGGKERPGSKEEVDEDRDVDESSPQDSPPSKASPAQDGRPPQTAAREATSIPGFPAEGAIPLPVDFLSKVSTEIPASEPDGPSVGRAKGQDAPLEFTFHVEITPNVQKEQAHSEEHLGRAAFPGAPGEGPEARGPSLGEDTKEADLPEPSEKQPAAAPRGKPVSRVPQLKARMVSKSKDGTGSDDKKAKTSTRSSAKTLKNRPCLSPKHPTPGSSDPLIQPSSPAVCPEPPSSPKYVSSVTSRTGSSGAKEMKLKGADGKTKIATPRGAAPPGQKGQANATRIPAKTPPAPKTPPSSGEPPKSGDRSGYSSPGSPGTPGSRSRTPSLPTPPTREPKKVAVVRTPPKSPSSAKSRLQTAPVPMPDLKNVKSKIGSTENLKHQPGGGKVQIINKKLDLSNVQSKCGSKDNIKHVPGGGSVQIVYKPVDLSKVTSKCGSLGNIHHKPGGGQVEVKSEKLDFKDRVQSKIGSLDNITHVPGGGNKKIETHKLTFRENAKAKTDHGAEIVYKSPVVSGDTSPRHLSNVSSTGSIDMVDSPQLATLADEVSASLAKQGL

Structure (SMILES) | activity, negative = inhibition | Potency
COc1cccc(NC(=O)CSc2nc3cc(OC)c(OC)cc3c3nc(-c4ccccc4)nn23)c1 | inactive: 11.3% | –
S=c1[nH]ncn1/N=C/c1ccc(N2CCOCC2)cc1 | – | inconclusive: 7.94 µM [inhibitor, partial curve]
Cc1ccc(S(=O)(=O)c2cc(OC(=O)c3ccco3)ccc2OC(=O)c2ccco2)cc1 | – | inconclusive: 20 µM [inhibitor, single point]
CCCCC1OC2(C)OC(=N)C1(C#N)C(C#N)(C#N)C2c1ccccc1 (stereo unspecified) | – | inconclusive: 31.6 µM [inhibitor, single point]
COc1ccc(CONc2ncnc3nonc23)cc1[N+](=O)[O-] | – | inconclusive: 10 µM [inhibitor, partial curve]
CCn1c2ccccc2c2cc(CN3CCN(Cc4ccccc4Cl)CC3)ccc21 | – | inconclusive: 22.4 µM [inhibitor, partial curve]
O=S(=O)(Nc1ccc2nc(-c3ccco3)[nH]c2c1)c1ccccc1 | – | inconclusive: 12.6 µM [inhibitor, partial curve]
Cc1nnc(Sc2cc(C(=O)NCc3ccco3)c3ccccc3n2)s1 | – | inconclusive: 31.6 µM [inhibitor, single point]
O=C(Nc1nc2ccccc2[nH]1)c1ccccc1 | inactive: -20.4% | –
Cc1cc(NC(=O)c2noc3c2CCc2ccccc2-3)no1 | inactive: 0.699% | –
Cc1csc(NC(=O)CCc2nc3ccccc3s2)n1 | – | inconclusive: 14.1 µM [inhibitor, partial curve]
COC(=O)c1ccccc1NC(=O)c1ccc2nccnc2c1 | – | inconclusive: 11.2 µM [inhibitor, partial curve]
COCCn1nnnc1C(c1cc2cc(C)ccc2[nH]c1=O)N1CCCCCC1 (stereo unspecified) | – | inconclusive: 31.6 µM [inhibitor, single point]
CCOc1ccccc1CNC(=O)c1cc2n(n1)CCCN(Cc1ccc(C)cc1)C2=O | inactive: -10.8% | –
O=[N+]([O-])c1ccc(N2N=C(c3ccco3)CC2c2ccccc2)cc1 (stereo unspecified) | – | active: 8.91 µM
N=C(N)SCc1ncccc1O | – | inconclusive: 39.8 µM [inhibitor, single point]
COc1ccccc1-c1cc(SC)c(C#N)c(=O)o1 | – | inconclusive: 4.47 µM [inhibitor, partial curve, poor fit]
Cc1ccc(-c2nnc(N3CCN(C(=O)COc4ccccc4)CC3)c3ccccc23)cc1 | – | inconclusive: 11.2 µM [inhibitor, partial curve]
Cc1onc(-c2ccccc2)c1C(=O)N1CCCc2ccccc21 | inactive: -5.15% | –
CCc1cc2c(=O)c(-c3ccc(F)cc3)c(C)oc2cc1OCC(=O)O | – | inconclusive: 15.8 µM [inhibitor, partial curve]
CSC1=NC(=O)/C(=C/c2ccc(SC)cc2)S1 | – | inconclusive: 25.1 µM [inhibitor, partial curve]
COc1ccc(CNCC(=O)Nc2ccccc2-n2cccc2)cc1 | inactive: -1.46% | –

Structure (SMILES) | activity, negative = inhibition | Potency
Cc1cc(C)nc(Sc2ncnc(N)c2[N+](=O)[O-])n1 | – | inconclusive: 7.08 µM [inhibitor, partial curve]
CC1(C)CC(=O)C2=C(C1)N(Cc1ccco1)C(=O)C2(NC(=O)c1cccnc1)C(F)(F)F (stereo unspecified) | inactive: -18.3% | –
COc1cc(/C=C(\C#N)c2nc3ccccc3[nH]2)cc(Cl)c1OCc1ccccc1Cl | inactive: -2.31% | –
CC(=O)N1N=C(c2ccncc2)OC1(Cc1ccccc1)Cc1ccccc1 | – | inconclusive: 39.8 µM [inhibitor, single point]
Cc1ccc(S(=O)(=O)NC(=O)CSc2nc3ccccc3s2)cc1 | – | inconclusive: 0.178 µM [activator, full curve, poor fit]
CCSc1nc2ccccc2n1Cc1ccccc1F | – | inconclusive: 31.6 µM [inhibitor, single point]
O=C(Nc1ccc(N=Nc2ccccc2)cc1)c1cccc(Cl)c1 | – | active: 3.16 µM
N#C/C(=C/c1ccc(Cl)cc1)c1nc(-c2ccc(Br)cc2)cs1 | – | inconclusive: 4.47 µM [inhibitor, partial curve]
COc1ccc(C2c3c(ncn(CCN4CCOCC4)c3=N)Oc3ccc4ccccc4c32)cc1OC (stereo unspecified) | inactive: -13.3% | –
Cc1cc(C)c2c(N=NN3CCCCC3)[nH]nc2n1 | – | inconclusive: 12.6 µM [inhibitor, partial curve]
CCCCc1nn2c(=O)cc(COC(=O)c3cccc(NC(=O)CCc4ccccc4)c3)nc2s1 | – | inconclusive: 0.251 µM [inhibitor, full curve]
O=C(NCCC1=CCCCC1)c1ccc2c(c1)N(Cc1ccccc1)C(=O)CS2 | inactive: -5.69% | –
CCc1ccc(-n2c(=O)c3c(C)c(C)sc3n(CC(=O)NCc3ccc(C)cc3)c2=O)cc1 | inactive: -0.774% | –
CCOC(=O)c1ccc(NC(=O)/C(C#N)=C/c2ccc(OC)cc2)cc1 | – | inconclusive: 1 µM [inhibitor, full curve, poor fit]
CCCn1c2ccccc2c2cnn(CC(=O)N(C)c3ccccc3CC)c(=O)c21 | – | inconclusive: 20 µM [inhibitor, partial curve, poor fit]
CCC(C)NC(=O)CN(c1ccc(OC)cc1)S(=O)(=O)c1ccc(NC(C)=O)cc1 (stereo unspecified) | inactive: -8.68% | –
CCOc1cc(/C=N/Nc2cc(C)nc(-n3nc(C)cc3C)n2)ccc1O | – | inconclusive: 14.1 µM [inhibitor, partial curve, poor fit]
COCc1cc(C)nc2sc(C(=O)OC(C)C)c(N)c12 | – | inconclusive: 3.98 µM [inhibitor, single point]
O=C(CNc1cccc([N+](=O)[O-])c1)N/N=C/c1ccc(F)cc1 | – | inconclusive: 14.1 µM [inhibitor, partial curve]
C#CCOCCOCCOCCNc1nc(N2CCN(C(=O)[C@H](Cc3ccc(O)cc3)n3cc([C@@H](N)C(C)CC)nn3)CC2)nc(N2CCN(C(=O)[C@H](Cc3cc4ccccc4[nH]3)n3cc([C@@H](N)C(C)CC)nn3)CC2)n1 (stereo partly specified) | – | inconclusive: 28.2 µM [inhibitor, single point]
CCOc1ccc(NCc2nc3ccccc3n2CCOc2ccccc2)cc1 | – | inconclusive: 14.1 µM [inhibitor, partial curve]
O=C(CCC1N=C2c3ccccc3N=C(SCc3ccc(Cl)cc3)N2C1=O)NCCc1ccccc1 (stereo unspecified) | – | inconclusive: 15.8 µM [inhibitor, partial curve, poor fit]

Structure (SMILES) | activity, negative = inhibition | Potency
COC(=O)[C@H](Cc1ccccc1)NC(=O)O[C@@H]1C(=O)c2cc(OC)ccc2O[C@H]1c1ccc(OC)c(Br)c1 | – | inconclusive: 7.94 µM [inhibitor, full curve]
COc1cccc(-c2ccc3c(N)c(C(=O)NC4CC4)sc3n2)c1 | – | inconclusive: 3.55 µM [inhibitor, full curve]
N#Cc1cc2c(nc1SCC(=O)Nc1sc3c(c1C#N)CCC3)CCC2 | – | inconclusive: 3.98 µM [inhibitor, full curve]
c1cc2c(cc1C1CCCCC1)c1c3n2CCCNC3CCC1 (stereo unspecified) | – | inconclusive: 39.8 µM [inhibitor, single point]
O/N=C/c1cc(Br)ccc1OCc1cccc(F)c1 | – | inconclusive: 17.8 µM [inhibitor, partial curve]
N#CC(C#N)=C(N)/C(C#N)=C/c1cc(O)c(O)c(O)c1 | – | active: 11.2 µM
COCCNC(=S)Nc1ccc2[nH]c(=O)[nH]c2c1 | – | inconclusive: 22.4 µM [inhibitor, single point]
C#CC(=O)N(c1cccc(OC)c1)C(C(=O)NC1CCCC1)c1cccs1 (stereo unspecified) | inactive: -2.63% | –
COC(=O)C1=C(C)N(C)C(=O)NC1c1cc2c(cc1[N+](=O)[O-])OCO2 (stereo unspecified) | – | inconclusive: 15.8 µM [inhibitor, partial curve]
Cc1nn(CC(=O)Nc2ccccc2C(F)(F)F)c(=O)c2cccn12 | – | inconclusive: 28.2 µM [activator, partial curve]
O=C(C1=C[C@@H]2[C@H]3C(=O)N(c4cccc(Cl)c4)C(=O)[C@H]3[C@@H](C(=O)c3ccc(Cl)cc3)N2C=C1)c1ccccc1 | – | inconclusive: 31.6 µM [inhibitor, single point]
CCOc1ccc(C(=O)c2cn(CC(=O)Nc3ccc(F)cc3)c3cc4c(cc3c2=O)OCO4)cc1 | – | inconclusive: 3.98 µM [inhibitor, full curve, poor fit]
CCn1c2ccccc2c2cc(NC(=O)N3CCOCC3)ccc21 | – | inconclusive: 15.8 µM [inhibitor, partial curve]
CCOC(=O)c1c(C)[nH]c(C(=O)COC(=O)COc2ccccc2C=O)c1C | – | inconclusive: 2.24 µM [inhibitor, full curve]
Cn1c(=O)c(=O)n(C)c2cc(NC(=O)c3cccc(F)c3)c(Cl)cc21 | – | inconclusive: 28.2 µM [inhibitor, single point]
Cc1ccc(-c2nc3cnccn3c2Nc2c(C)cccc2C)o1 | – | inconclusive: 4.47 µM [inhibitor, partial curve]
CCCSCCCNC(=O)C1CCCN(c2nn3cc(-c4ccc(OC)cc4)nc3s2)C1 (stereo unspecified) | – | inconclusive: 7.94 µM [inhibitor, partial curve]
COc1ccccc1Oc1ccc(N/C=C/C(=O)c2ccc(C)o2)cc1 | – | inconclusive: 12.6 µM [inhibitor, partial curve]
ClCC1=Nc2cccc3cccc(c23)N1 | – | inconclusive: 14.1 µM [inhibitor, partial curve]
O=C(Cn1c(=O)oc2cc(Cl)ccc21)Nc1cccc(C(F)(F)F)c1 | inactive: -2.12% | –
Cc1nc2ncnn2c(C)c1CCC(=O)N1CCN(c2ccccc2)CC1 | inactive: 4.94% | –
CCCCCn1cc2c(c1-c1ccc(Br)cc1)c(=O)n(C)c(=O)n2C | – | inconclusive: 39.8 µM [inhibitor, single point]
